The supplement of paper PMC11876631
± gives the standard deviation of the averaged measurements. Laboratory Escherichia coli strains with one amino-acid change in an essential protein, pooled on minimal glucose agar with carbenicillin or gentamicin at twice the control MIC (plus kanamycin and chloramphenicol for the plasmids), 48 h. Fold change of barcode share against drug-free plates; higher = less susceptible. Active = above 20 in both replicates (the paper's putatively resistant). '<' = one read or none on drug, '>' = one read or none on a drug-free plate. Shares are relative, so most strains fall below 1 when a few take over. Listed are strains with at least 15 reads on both drug-free plates, and hits; most hits rest on fewer reference reads. Replicate rank correlation about 0.5. Edits are read from barcodes.

B1: msbA I28Q (protein)
chain: MHNDKDLSTWQTFRRLWPTIAPFKAGLQVAGVALILNAASDTFMLSLLKPLLDDGFGKTDRSVLVWMPLVVIGLMILRGITSYVSSYCISWVSGKVVMTMRRRLFGHMMGMPVSFFDKQSTGTLLSRITYDSEQVASSSSGALITVVREGASIIGLFIMMFYYSWQLSIILIVLAPIVSIAIRVVSKRFRNISKNMQNTMGQVTTSAEQMLKGHKEVLIFGGQEVETKRFDKVSNRMRLQGMKMVSASSISDPIIQLIASLALAFVLYAASFPSVMDSLTAGTITVVFSSMIALMRPLKSLTNVNAQFQRGMAACQTLFTILDSEQEKDEGKRVIERATGDVEFRNVTFTYPGRDVPALRNINLKIPAGKTVALVGRSGSGKSTIASLITRFYDIDEGEILMDGHDLREYTLASLRNQVALVSQNVHLFNDTVANNIAYARTEQYSREQIEEAARMAYAMDFINKMDNGLDTVIGENGVLLSGGQRQRIAIARALLRDSPILILDEATSALDTESERAIQAALDELQKNRTSLVIAHRLSTIEKADEIVVVEDGVIVERGTHNDLLEHRGVYAQLHKMQFGQ
B2: msbA V29W (protein)
chain: MHNDKDLSTWQTFRRLWPTIAPFKAGLIWAGVALILNAASDTFMLSLLKPLLDDGFGKTDRSVLVWMPLVVIGLMILRGITSYVSSYCISWVSGKVVMTMRRRLFGHMMGMPVSFFDKQSTGTLLSRITYDSEQVASSSSGALITVVREGASIIGLFIMMFYYSWQLSIILIVLAPIVSIAIRVVSKRFRNISKNMQNTMGQVTTSAEQMLKGHKEVLIFGGQEVETKRFDKVSNRMRLQGMKMVSASSISDPIIQLIASLALAFVLYAASFPSVMDSLTAGTITVVFSSMIALMRPLKSLTNVNAQFQRGMAACQTLFTILDSEQEKDEGKRVIERATGDVEFRNVTFTYPGRDVPALRNINLKIPAGKTVALVGRSGSGKSTIASLITRFYDIDEGEILMDGHDLREYTLASLRNQVALVSQNVHLFNDTVANNIAYARTEQYSREQIEEAARMAYAMDFINKMDNGLDTVIGENGVLLSGGQRQRIAIARALLRDSPILILDEATSALDTESERAIQAALDELQKNRTSLVIAHRLSTIEKADEIVVVEDGVIVERGTHNDLLEHRGVYAQLHKMQFGQ
B3: msbA V29A (protein)
chain: MHNDKDLSTWQTFRRLWPTIAPFKAGLIAAGVALILNAASDTFMLSLLKPLLDDGFGKTDRSVLVWMPLVVIGLMILRGITSYVSSYCISWVSGKVVMTMRRRLFGHMMGMPVSFFDKQSTGTLLSRITYDSEQVASSSSGALITVVREGASIIGLFIMMFYYSWQLSIILIVLAPIVSIAIRVVSKRFRNISKNMQNTMGQVTTSAEQMLKGHKEVLIFGGQEVETKRFDKVSNRMRLQGMKMVSASSISDPIIQLIASLALAFVLYAASFPSVMDSLTAGTITVVFSSMIALMRPLKSLTNVNAQFQRGMAACQTLFTILDSEQEKDEGKRVIERATGDVEFRNVTFTYPGRDVPALRNINLKIPAGKTVALVGRSGSGKSTIASLITRFYDIDEGEILMDGHDLREYTLASLRNQVALVSQNVHLFNDTVANNIAYARTEQYSREQIEEAARMAYAMDFINKMDNGLDTVIGENGVLLSGGQRQRIAIARALLRDSPILILDEATSALDTESERAIQAALDELQKNRTSLVIAHRLSTIEKADEIVVVEDGVIVERGTHNDLLEHRGVYAQLHKMQFGQ
B4: msbA V29Q (protein)
chain: MHNDKDLSTWQTFRRLWPTIAPFKAGLIQAGVALILNAASDTFMLSLLKPLLDDGFGKTDRSVLVWMPLVVIGLMILRGITSYVSSYCISWVSGKVVMTMRRRLFGHMMGMPVSFFDKQSTGTLLSRITYDSEQVASSSSGALITVVREGASIIGLFIMMFYYSWQLSIILIVLAPIVSIAIRVVSKRFRNISKNMQNTMGQVTTSAEQMLKGHKEVLIFGGQEVETKRFDKVSNRMRLQGMKMVSASSISDPIIQLIASLALAFVLYAASFPSVMDSLTAGTITVVFSSMIALMRPLKSLTNVNAQFQRGMAACQTLFTILDSEQEKDEGKRVIERATGDVEFRNVTFTYPGRDVPALRNINLKIPAGKTVALVGRSGSGKSTIASLITRFYDIDEGEILMDGHDLREYTLASLRNQVALVSQNVHLFNDTVANNIAYARTEQYSREQIEEAARMAYAMDFINKMDNGLDTVIGENGVLLSGGQRQRIAIARALLRDSPILILDEATSALDTESERAIQAALDELQKNRTSLVIAHRLSTIEKADEIVVVEDGVIVERGTHNDLLEHRGVYAQLHKMQFGQ
B5: asd I109A (protein)
chain: MKNVGFIGWRGMVGSVLMQRMVEERDFDAIRPVFFSTSQLGQAAPSFGGTTGTLQDAFDLEALKALDIIVTCQGGDYTNEIYPKLRESGWQGYWIDAASSLRMKDDAIAILDPVNQDVITDGLNNGIRTFVGGNCTVSLMLMSLGGLFANDLVDWVSVATYQAASGGGARHMRELLTQMGHLYGHVADELATPSSAILDIERKVTTLTRSGELPVDNFGVPLAGSLIPWIDKQLDNGQSREEWKGQAETNKILNTSSVIPVDGLCVRVGALRCHSQAFTIKLKKDVSIPTVEELLAAHNPWAKVVPNDREITMRELTPAAVTGTLTTPVGRLRKLNMGPEFLSAFTVGDQLLWGAAEPLRRMLRQLA

Target: Escherichia coli (laboratory strain)
Assay: barcode share on antibiotic plates over drug-free plates; higher = less susceptible
Description: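 A pool of E. coli strains, each edited to carry one amino-acid change in an essential protein, was grown for 48 h on minimal glucose agar with or without antibiotic; strain barcodes were sequenced; mean of two replicates.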

[1] = antibiotic: carbenicillin, 2× MIC (3.1 µg/mL)
[2] = antibiotic: gentamicin, 2× MIC (MIC 0.45 µg/mL)

Protein	fold change of barcode share [1]	fold change of barcode share [2]
B1	0.243 ± 0.05	0.00978 ± 0.0048
B2	0.228 ± 0.0039	0.00417 ± 0.0014
B3	0.274 ± 0.082	0.0033 ± 0.0027
B4	0.245 ± 0.031	0.00431 ± 0.0026
B5	0.433 ± 0.028	0.00889 ± 0.0076
